The chains are these.
T1: RBFOX1 RRM RbFoxmut (Fox-RRM*) (Homo sapiens, UniProt Q9NWB1 109-208, R118D;E147R;N151S;E152T)
T1 sequence: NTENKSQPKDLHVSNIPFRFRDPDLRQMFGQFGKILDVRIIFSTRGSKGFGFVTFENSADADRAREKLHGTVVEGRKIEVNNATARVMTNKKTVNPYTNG

B1: ACUAACG (DNA:RNA)
RNA: GGGAGACCGGAAUUCAGAUUGUCCACUAACGUUAAAUCCCGUCGUAGCCACCA
DNA 1: CAATCTGAATTCCGGTCTCCC
DNA 2: TGGTGGCTACGACGGGATT
B2: UCUCUCU (DNA:RNA)
RNA: B1 RNA with A25U, A28C, A29U, G31U
DNA 1: CAATCTGAATTCCGGTCTCCC
DNA 2: TGGTGGCTACGACGGGATT
B3: CUACAAC (DNA:RNA)
RNA: B1 RNA with A25C, C26U, U27A, A28C, C30A, G31C
DNA 1: CAATCTGAATTCCGGTCTCCC
DNA 2: TGGTGGCTACGACGGGATT
B4: UAGAUUA (DNA:RNA)
RNA: B1 RNA with A25U, C26A, U27G, A29U, C30U, G31A
DNA 1: CAATCTGAATTCCGGTCTCCC
DNA 2: TGGTGGCTACGACGGGATT
B5: GCAGACG (DNA:RNA)
RNA: B1 RNA with A25G, U27A, A28G
DNA 1: CAATCTGAATTCCGGTCTCCC
DNA 2: TGGTGGCTACGACGGGATT
B6: AAUUCCA (DNA:RNA)
RNA: B1 RNA with C26A, A28U, A29C, G31A
DNA 1: CAATCTGAATTCCGGTCTCCC
DNA 2: TGGTGGCTACGACGGGATT
B7: UGGCUAG (DNA:RNA)
RNA: B1 RNA with A25U, C26G, U27G, A28C, A29U, C30A
DNA 1: CAATCTGAATTCCGGTCTCCC
DNA 2: TGGTGGCTACGACGGGATT
B8: UUUGUAA (DNA:RNA)
RNA: B1 RNA with A25U, C26U, A28G, A29U, C30A, G31A
DNA 1: CAATCTGAATTCCGGTCTCCC
DNA 2: TGGTGGCTACGACGGGATT
B9: ACCGCGA (DNA:RNA)
RNA: B1 RNA with U27C, A28G, A29C, C30G, G31A
DNA 1: CAATCTGAATTCCGGTCTCCC
DNA 2: TGGTGGCTACGACGGGATT
B10: UAUCCCC (DNA:RNA)
RNA: B1 RNA with A25U, C26A, A28C, A29C, G31C
DNA 1: CAATCTGAATTCCGGTCTCCC
DNA 2: TGGTGGCTACGACGGGATT
B11: GGCUUGU (DNA:RNA)
RNA: GGGAGACCGGAAUUCAGAUUGUCCGGCUUGUUUAAAUCCCGUCGUAGCCACCA
DNA 1: CAATCTGAATTCCGGTCTCCC
DNA 2: TGGTGGCTACGACGGGATT
B12: CCGCAAU (DNA:RNA)
RNA: B1 RNA with A25C, U27G, A28C, C30A, G31U
DNA 1: CAATCTGAATTCCGGTCTCCC
DNA 2: TGGTGGCTACGACGGGATT
B13: AAGGGCA (DNA:RNA)
RNA: B1 RNA with C26A, U27G, A28G, A29G, G31A
DNA 1: CAATCTGAATTCCGGTCTCCC
DNA 2: TGGTGGCTACGACGGGATT
B14: CUCCAGU (DNA:RNA)
RNA: B11 RNA with G25C, G26U, U28C, U29A
DNA 1: CAATCTGAATTCCGGTCTCCC
DNA 2: TGGTGGCTACGACGGGATT
B15: AUUCCGU (DNA:RNA)
RNA: B1 RNA with C26U, A28C, A29C, C30G, G31U
DNA 1: CAATCTGAATTCCGGTCTCCC
DNA 2: TGGTGGCTACGACGGGATT
B16: CGGUCAC (DNA:RNA)
RNA: B11 RNA with G25C, C27G, U29C, G30A, U31C
DNA 1: CAATCTGAATTCCGGTCTCCC
DNA 2: TGGTGGCTACGACGGGATT
B17: GGUGUGG (DNA:RNA)
RNA: B11 RNA with C27U, U28G, U31G
DNA 1: CAATCTGAATTCCGGTCTCCC
DNA 2: TGGTGGCTACGACGGGATT
B18: CCGCGCG (DNA:RNA)
RNA: B1 RNA with A25C, U27G, A28C, A29G
DNA 1: CAATCTGAATTCCGGTCTCCC
DNA 2: TGGTGGCTACGACGGGATT
B19: UCAUGGA (DNA:RNA)
RNA: B11 RNA with G25U, G26C, C27A, U29G, U31A
DNA 1: CAATCTGAATTCCGGTCTCCC
DNA 2: TGGTGGCTACGACGGGATT
B20: GGUGGCU (DNA:RNA)
RNA: B11 RNA with C27U, U28G, U29G, G30C
DNA 1: CAATCTGAATTCCGGTCTCCC
DNA 2: TGGTGGCTACGACGGGATT
B21: CCCUGAA (DNA:RNA)
RNA: B11 RNA with G25C, G26C, U29G, G30A, U31A
DNA 1: CAATCTGAATTCCGGTCTCCC
DNA 2: TGGTGGCTACGACGGGATT
B22: UUUGUAG (DNA:RNA)
RNA: B1 RNA with A25U, C26U, A28G, A29U, C30A
DNA 1: CAATCTGAATTCCGGTCTCCC
DNA 2: TGGTGGCTACGACGGGATT
B23: UUCUCUA (DNA:RNA)
RNA: B11 RNA with G25U, G26U, U29C, G30U, U31A
DNA 1: CAATCTGAATTCCGGTCTCCC
DNA 2: TGGTGGCTACGACGGGATT
B24: CUCAAGA (DNA:RNA)
RNA: B1 RNA with A25C, C26U, U27C, C30G, G31A
DNA 1: CAATCTGAATTCCGGTCTCCC
DNA 2: TGGTGGCTACGACGGGATT
B25: UCACGAC (DNA:RNA)
RNA: B1 RNA with A25U, U27A, A28C, A29G, C30A, G31C
DNA 1: CAATCTGAATTCCGGTCTCCC
DNA 2: TGGTGGCTACGACGGGATT
B26: AUCCACU (DNA:RNA)
RNA: B1 RNA with C26U, U27C, A28C, G31U
DNA 1: CAATCTGAATTCCGGTCTCCC
DNA 2: TGGTGGCTACGACGGGATT
B27: UGACUAG (DNA:RNA)
RNA: B11 RNA with G25U, C27A, U28C, G30A, U31G
DNA 1: CAATCTGAATTCCGGTCTCCC
DNA 2: TGGTGGCTACGACGGGATT
B28: CAGGCAU (DNA:RNA)
RNA: B11 RNA with G25C, G26A, C27G, U28G, U29C, G30A
DNA 1: CAATCTGAATTCCGGTCTCCC
DNA 2: TGGTGGCTACGACGGGATT
B29: UUAUCGG (DNA:RNA)
RNA: B11 RNA with G25U, G26U, C27A, U29C, U31G
DNA 1: CAATCTGAATTCCGGTCTCCC
DNA 2: TGGTGGCTACGACGGGATT
B30: UCACGGG (DNA:RNA)
RNA: B1 RNA with A25U, U27A, A28C, A29G, C30G
DNA 1: CAATCTGAATTCCGGTCTCCC
DNA 2: TGGTGGCTACGACGGGATT
B31: UACUGGG (DNA:RNA)
RNA: B11 RNA with G25U, G26A, U29G, U31G
DNA 1: CAATCTGAATTCCGGTCTCCC
DNA 2: TGGTGGCTACGACGGGATT

Substitutions are numbered along the chain they refer to; changes in the protein carry UniProt numbers. Some of the results follow.

This assay has as its target T1, RBFOX1 RRM RbFoxmut (Fox-RRM*). As to the kind of experiment: EMSA; HiTS-Eq, 1 nM pool, 10 min; buffer printed only for the single-RNA assays: 10 mM Tris pH 7.5, 150 mM NaCl, 3.4 mM EDTA, 0.001% NP-40, 30 C. To be noted: tags: His6 N-terminal (pET28a); label: 5' 32P. A digest of the protocol: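 A pool of RNA with 7 randomized nucleotides, 5′-radiolabelled and with DNA-annealed flanks, was equilibrated at 1 nM for 10 min in 50 µL with purified RbFox RRM, wild type or mutant, across increasing protein concentrations. Free RNA was separated by 8% native PAGE, excised, reverse-transcribed, barcoded by PCR and sequenced. Relative association constants were obtained from read-count changes of each RNA species versus the control reaction and normalised to the cognate motif.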
(In general: A gel shift assay detects complexes by their altered migration in electrophoresis.)
As to B1, the binding signal is 0.146 KA relative to UGCAUGU.

Take B2: the binding signal is 0.067 KA relative to UGCAUGU.

Regarding B3, the binding signal is 0.0436 KA relative to UGCAUGU.

As to B4, the binding signal was 0.109 KA relative to UGCAUGU.

For B5, the binding signal is 0.0932 KA relative to UGCAUGU.

In the case of B6, the binding signal was 0.0771 KA relative to UGCAUGU.

In the case of B7, the binding signal is 0.153 KA relative to UGCAUGU.

Consider B8, for which the binding signal is 0.152 KA relative to UGCAUGU.

For the molecule B9, the binding signal was 0.0683 KA relative to UGCAUGU.

Consider B10, for which the binding signal is 0.0611 KA relative to UGCAUGU.

Consider B11, for which the binding signal was 0.359 KA relative to UGCAUGU.

Regarding B12, the binding signal is 0.0582 KA relative to UGCAUGU.

On to B13, for which the binding signal was 0.061 KA relative to UGCAUGU.

Regarding B14, the binding signal was 0.144 KA relative to UGCAUGU.

As to B15, the binding signal is 0.0989 KA relative to UGCAUGU.

As for B16, the binding signal is 0.0348 KA relative to UGCAUGU.

On to B17, for which the binding signal was 0.137 KA relative to UGCAUGU.

Consider B18, for which the binding signal was 0.143 KA relative to UGCAUGU.

For B19, the binding signal was 0.0546 KA relative to UGCAUGU.

With B20, the binding signal is 0.113 KA relative to UGCAUGU.

Consider B21, for which the binding signal is 0.0778 KA relative to UGCAUGU.

On to B22, for which the binding signal was 0.165 KA relative to UGCAUGU.

For the molecule B23, the binding signal is 0.11 KA relative to UGCAUGU.

On to B24, for which the binding signal is 0.105 KA relative to UGCAUGU.

With B25, the binding signal was 0.0776 KA relative to UGCAUGU.

As for B26, the binding signal was 0.127 KA relative to UGCAUGU.

In the case of B27, the binding signal is 0.114 KA relative to UGCAUGU.

Take B28: the binding signal was 0.103 KA relative to UGCAUGU.

In the case of B29, the binding signal is 0.075 KA relative to UGCAUGU.

On to B30, for which the binding signal is 0.0758 KA relative to UGCAUGU.

On to B31, for which the binding signal was 0.0764 KA relative to UGCAUGU.

Source of the values: publication PMC9911399, “Two distinct binding modes provide the RNA-binding protein RbFox with extraordinary sequence specificity”.
